Measured values taken from publication PMC4336329 (PLoS ONE, 2015).
Screen size: about 310,000 compounds; about 14,000 (4.5%) showed an effect of 50% or more. Effects have a minus sign here. The list shows a part of the results.

Each molecule was assayed against human ether-à-go-go-related gene (hERG) potassium channel (human, UniProt Q12809) (assay: primary screen, population patch clamp on CHO cells stably expressing hERG).
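Note: peak tail current of the secondary pulse compared with the same well before compound.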

human ether-à-go-go-related gene (hERG) potassium channel, sequence (Q12809 whole entry, looked up): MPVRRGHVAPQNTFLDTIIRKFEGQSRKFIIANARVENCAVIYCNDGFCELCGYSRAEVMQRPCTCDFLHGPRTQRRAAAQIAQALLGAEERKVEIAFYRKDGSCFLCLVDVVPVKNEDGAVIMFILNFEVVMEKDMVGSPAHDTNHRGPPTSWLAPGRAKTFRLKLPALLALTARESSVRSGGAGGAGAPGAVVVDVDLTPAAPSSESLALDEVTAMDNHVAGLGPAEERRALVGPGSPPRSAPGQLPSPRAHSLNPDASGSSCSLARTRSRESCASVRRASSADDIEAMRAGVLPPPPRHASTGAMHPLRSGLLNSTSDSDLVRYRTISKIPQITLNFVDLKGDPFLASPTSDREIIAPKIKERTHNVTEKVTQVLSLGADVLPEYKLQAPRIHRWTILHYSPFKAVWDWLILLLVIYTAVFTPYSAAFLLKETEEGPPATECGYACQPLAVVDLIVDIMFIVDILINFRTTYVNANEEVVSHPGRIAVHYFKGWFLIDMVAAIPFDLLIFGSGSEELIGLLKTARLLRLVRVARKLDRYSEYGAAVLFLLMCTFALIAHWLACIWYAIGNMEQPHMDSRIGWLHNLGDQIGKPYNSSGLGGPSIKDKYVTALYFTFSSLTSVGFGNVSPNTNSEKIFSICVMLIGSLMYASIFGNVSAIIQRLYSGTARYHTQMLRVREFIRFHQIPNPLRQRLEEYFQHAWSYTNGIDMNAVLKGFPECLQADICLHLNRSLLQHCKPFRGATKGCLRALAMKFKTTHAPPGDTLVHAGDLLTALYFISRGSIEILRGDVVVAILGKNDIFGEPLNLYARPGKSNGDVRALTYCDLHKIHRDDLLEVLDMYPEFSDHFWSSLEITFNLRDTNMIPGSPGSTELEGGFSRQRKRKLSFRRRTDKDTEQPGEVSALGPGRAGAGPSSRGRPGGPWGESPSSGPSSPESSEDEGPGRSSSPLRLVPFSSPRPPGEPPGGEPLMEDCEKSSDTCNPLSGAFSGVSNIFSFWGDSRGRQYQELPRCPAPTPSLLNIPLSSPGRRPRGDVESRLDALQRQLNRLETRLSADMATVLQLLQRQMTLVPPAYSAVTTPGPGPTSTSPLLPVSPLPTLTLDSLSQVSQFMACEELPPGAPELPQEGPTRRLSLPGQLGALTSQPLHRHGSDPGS

Compound	hERG current change (%, negative = inhibition) at 10uM
Cc1noc(C)c1COC(=O)c1cc(C)n(-c2ccccc2)c1C	-2.49%
Cc1nc2c(C(=O)NCc3ccc(F)cc3)c[nH]n2c(=O)c1Cl	17.6%
COc1ccccc1CNC(=O)CC(C)C	14.7%
CCOC(=O)Cn1cnc2c(nnn2-c2ccc(C)cc2)c1=O	-0.39%
C[C@]12C(=O)N(c3ccc(F)cc3)C(=O)N1[C@@H]1c3ccccc3OC[C@@H]1[C@H]2c1ccccc1	7.01%
Cc1ccc(Cn2ccc(NC(=O)c3cc(-c4cccc(Cl)c4)on3)n2)cc1	-6.37%
CCOc1cc(C)cc2oc(=O)c3c(c12)CCCC3	-3.74%
CCOC(=O)CSc1nc(=O)n2ccccc2n1	13.2%
Cl.OCCN(Cc1ccccc1)CC(O)COc1ccc(-c2ccccc2)cc1 (centres unmarked)	-28.3%
C=CCOc1cccc(C2C(C(=O)c3ccc(C)o3)=C(O)C(=O)N2CCN(C)C)c1 (centres unmarked)	6.81%
CCC(C)SCC(=O)Nc1ccc(S(=O)(=O)N2CCOCC2)cc1OC (centres unmarked)	-0.663%
OCCC1CN(Cc2cccc(F)c2F)CCN1CCc1ccccc1 (centres unmarked)	-55.3%
CCOc1ccc(CNC(=O)CCS(=O)(=O)Cc2ccccc2C)cc1OC	7.73%
COc1cc(O)c2c(=O)c(-c3ccc(O[C@@H]4O[C@H](CO)[C@@H](O)[C@H](O)[C@H]4O)cc3)coc2c1	8.87%
COCc1ccccc1Cn1cnc2c1c(=O)n(C)c(=O)n2C	8.87%
CC(Oc1ccc(Cl)cc1Cl)C(=O)OCC(=O)c1c(N)n(C)c(=O)n(C)c1=O (centres unmarked)	-71.2%
COc1ccc(-c2ccnc3nc(-n4cccc4)nn23)cc1	-14.7%
O=C(CCCc1nc2ccccc2s1)NCc1cccnc1	0.483%
CC(c1ccccc1)N1C(=O)c2ccccc2C1O (centres unmarked)	6.24%
COc1ccc(CN(C(=S)Nc2ccccc2)C2CC(=O)N(c3ccc(F)cc3)C2=O)cc1 (centres unmarked)	26.5%
O=C(c1cnn2c(C(F)(F)F)cc(-c3ccc4c(c3)OCO4)nc12)N1CCCC1	-7.65%
COc1ccc(C(C)NC(=O)Cc2ccc(Br)cc2)cc1 (centres unmarked)	12.9%

Compound	hERG current change (%, negative = inhibition) at 10uM
CC1=Nc2ccccc2/C1=C\c1nc(-c2ccccc2)oc1O	18.5%
CCOC(=O)N1CCN(S(=O)(=O)c2ccc(C(=O)N(CCN(CC)CC)c3nc4c(C)cccc4s3)cc2)CC1.Cl	-24.3%
COCCCOc1ccnc(CS(=O)c2nc3ccccc3[nH]2)c1C (centres unmarked)	-1.7%
COC(=O)C1=C(c2ccc(C(C)=O)cc2)C[C@@H]2CC[C@H]1N2C(=O)NCc1ccc(F)cc1	-30.9%
COc1cc(C)nc2nc(SCc3ccccc3)nn12	7.43%
COc1ccccc1CNC(=O)CSc1nc(N)c(C#N)c(-c2cccs2)c1C#N	-1.2%
Cn1cnc(S(=O)(=O)Nc2ccc3c(c2)OCCO3)c1	14.7%
O=C(Cc1ccccc1)Nc1ccnn1C1CCN(Cc2nccs2)CC1	7.8%
C(=N/Nc1cc(N2CCOCC2)nc(N2CCOCC2)n1)/c1ccccc1	-39.9%
COC(=O)c1cc(-c2ccc(Br)cc2)n[nH]1	4.95%
CC(=O)OC1CC(C)(C)N(OC(=O)c2ccccc2)C(C)(C)C1	6.97%
CCOc1ccc(S(=O)(=O)NCCC(=O)NCCc2ccc(C(C)C)cc2)cc1	3.89%
COc1ccc(-c2noc(C(C)NS(=O)(=O)c3ccc(NC(C)=O)cc3)n2)cc1 (centres unmarked)	17.5%
Cl.O=C(COc1ccc(Cl)cc1)NC1CN2CCC1CC2 (centres unmarked)	-35.1%
O=C(COC(=O)COc1ccc(Nc2ccccc2)cc1)NCc1ccco1	6.3%
Cc1ccccc1NC(=O)CC1(c2ccc(N(C)C)cc2)C(=O)c2ccccc2C1=O	7.97%
Cc1cc(C)n(-c2ccc(N3CCOCC3)nn2)n1	-0.758%
CC(C)CNC(=O)C1CCN(c2ccc(S(=O)(=O)N3CCOCC3)cc2Cl)CC1	-19.3%
CC(=O)c1cccc(NC(=O)c2cnccn2)c1	4.59%
C=CCn1cc(C(=O)N2CCN(c3ccccc3)CC2)c(=O)c2cc(S(=O)(=O)N3CCCC3)ccc21	-1.44%
O=C(/C=C/c1ccco1)Nc1ccc(N2CCCC2)cc1	10.5%
N#Cc1c(NC(=O)c2cc([N+](=O)[O-])ccc2N2CCOCC2)sc2c1CCCC2	4.02%

Compound	hERG current change (%, negative = inhibition) at 10uM
CCOC(=O)N1CCC(N2Cc3cccc(C(=O)N4CCN(C5CCCCC5)CC4)c3C2=O)CC1	-62.4%
CCNc1nc(NC(C)C)nc(OCCNS(=O)(=O)c2cc(C)ccc2C)n1	-47.7%
CN1CCN(c2cc(N3CCc4ccccc4C3)c(F)cc2[N+](=O)[O-])CC1	-44.2%
CC(=O)Oc1cccc(Nc2ncnc3ccccc23)c1	-1.52%
CCCc1nc(SCC(=O)N2CCC(Cc3ccccc3)CC2)c2c(=O)n(C)c(=O)n(C)c2n1	-34.8%
Cc1ccc(Cn2ncc3c(N4CCN(CCc5ccccc5)CC4)ncnc32)cc1	5.73%
O=C(NNC(=S)Nc1ccc(Cl)c(Cl)c1)c1cccc([N+](=O)[O-])c1	36%
CCN(CC)CCOC(=O)c1ccc(NC(=O)CNC(=O)C2CCCCC2)cc1.Cl	-9.28%
O=C(CN1C(=O)C2C3C=CC(C3)C2C1=O)Nc1ccc2c(c1)OCCO2 (centres unmarked)	-4.27%
CN(c1ccccc1C(=O)NCc1ccccc1Cl)S(=O)(=O)c1ccccc1	-12.8%
Cc1cccc(-c2noc(CCC(=O)NC3CCCC3)n2)c1	4.37%
CSc1ccc(Cl)c(C(=O)NCCOc2cc(C)ccc2C(C)C)c1	9.11%
Nn1cnnc1SCC(=O)Nc1ccc(C2CCCCC2)cc1	12.5%
Cc1cccc(NC(=S)NCC(c2cccnc2)N(C)C)c1C (centres unmarked)	4.1%
COc1cccc(-c2nnc(SCC3CNC(=O)O3)n2-c2ccc(Cl)cc2)c1 (centres unmarked)	8.33%
CCC(C)NC(=O)Cn1cnc2sc(C)c(S(=O)(=O)N3CCCCC3)c2c1=O (centres unmarked)	14.6%
C1CC2OC2CC1C1CO1 (centres unmarked)	20.4%
CCOC(=O)c1ccc2c(c1)nc(SCC(=O)c1ccco1)n2CC	5.46%
Cc1cc(-c2onc(C)c2C(=O)Nc2ccc(C(F)(F)F)cc2)no1	5.24%
O=C(NCC1(c2ccccc2)CCOCC1)c1ccc(Br)o1	0.16%
CCC(=NCCCO)c1c(O)n(-c2ccc(OC)cc2)c(=O)[nH]c1=O	12.2%
Cc1[nH]c(=O)[nH]c(=O)c1/C=N/NC(=O)[C@H](CC(C)C)NC(=O)OC(C)(C)C	7.2%

Compound	hERG current change (%, negative = inhibition) at 10uM
CC(OC(=O)c1ccc([N+](=O)[O-])s1)C(=O)NC1CCCCC1C (centres unmarked)	3.13%
CCOC(=O)N1CC=C2C(C#N)=C(N)C(C#N)(C#N)[C@H](c3cccs3)C2C1 (some centres unmarked)	-2.45%
O=C(Oc1c(-c2ccccc2)c(=O)n2c3c(cccc13)CC2)c1ccco1	-62%
COc1ccc(/C=C(\NC(=O)c2ccco2)C(=O)N2CCCCC2)cc1	19.7%
Cc1ccccc1-n1c(SCc2cccc(F)c2)nc2[nH]ncc2c1=O	-26%
Nc1ccn(CC(=O)NCc2ccc3[nH]ccc3c2)c(=O)n1	20.5%
COCCN(C(=S)Nc1ccccc1OC)C1CCN(C(C)=O)CC1	9.71%
Cc1ccc(Cc2nnc(SCC(=O)Nc3c(C)cccc3C)[nH]c2=O)cc1	-9.17%
Cc1ccccc1OCCn1cc(/C=C(\C#N)C(=O)NCc2ccco2)c2ccccc21	3.64%
N#CCC(=O)Nc1ccc(C(=O)OCC(=O)Nc2ccccc2Sc2ccccc2)cc1	5.7%
COCC(=O)Nc1nc2n(n1)C(c1ccc(Cl)cc1)CC(c1ccc(OC)cc1)N2 (centres unmarked)	-73.8%
COc1cc(/C=C/C(=O)OCC(=O)Nc2ccc([N+](=O)[O-])cc2)ccc1O	-18.9%
Cc1[nH]c2ccccc2c1C(c1ccncc1)N1CCN(c2ccccn2)CC1 (centres unmarked)	8.61%
CCOc1ccc(-c2noc(=O)[nH]2)cc1	-2.85%
CCc1ccccc1NC(=S)N(CCN1CCOCC1)C1CCN(C(C)=O)CC1	21.9%
CCc1ccccc1N(CC)C(=O)c1cn(CC)c(=O)c2cc(OC)c(OC)cc12	4.01%
COc1cccc(/C=N/NC(=O)c2nnn(-c3nonc3N)c2C(C)C)c1	11.4%
C/C(CC(C)(C)c1ccccc1)=N\NS(=O)(=O)c1ccccc1	13.9%
CCC(C)(C)NC(=O)C(c1ccccc1Cl)N(C(=O)CCC(=O)Nc1cc(C)on1)C(C)(C)C (centres unmarked)	-5.44%
O=S1(=O)C[C@@H](N2CCOCC2)[C@H](N2CCOCC2)C1	13.3%
